Data as given in the supplement of paper PMC4604168 (melanoma cell lines).
The other results are listed elsewhere or left out. Single values are uncertain, as repeats are few or missing.

Columns and labels:
Assay in all cases: cell count relative to DMSO control; melanoma cells; higher = more viable cells
Details in all cases: library dose: standard library concentration; 72 h
A101D = tested on: A101D
A2058 = tested on: A2058
A375 = tested on: A375
501Mel = tested on: 501Mel
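Further: cells treated in 1,536-well plates, then fixed and DAPI-stained, with nuclei counted from automated high-throughput microscope images.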

Row | Structure (SMILES) | cell count (A101D) [%] | cell count (A2058) [%] | cell count (A375) [%] | cell count (501Mel) [%]
1 | Cc1cn(-c2cc(NC(=O)c3ccc(C)c(Nc4nccc(-c5cccnc5)n4)c3)cc(C(F)(F)F)c2)cn1 [nilotinib] + Nc1ncn([C@H]2C[C@H](O)[C@@H](CO)O2)c(=O)n1 [decitabine] (first compound 1 µM, partner dose 0.5 µM) | 88.1 | 86.9 | 128 | –
2 | COc1ccc(C2=N[C@@H](c3ccc(Cl)cc3)[C@@H](c3ccc(Cl)cc3)N2C(=O)N2CCNC(=O)C2)c(OC(C)C)c1 [Nutlin-3] + COc1cc2ncnc(Nc3ccc(Oc4ccccc4)cc3)c2cc1OC [SrcI1] (first compound 0.5 µM, partner dose 10 µM) | 63.9 | 83.7 | 148 | 72.3
3 | Cc1cc(Nc2cc(N3CCN(C)CC3)nc(/C=C/c3ccccc3)n2)n[nH]1 + COC(=O)c1sccc1S(=O)(=O)Nc1ccc(Nc2ccccc2)cc1OC [GSK0660] (first compound 0.2 µM, partner dose 5 µM) | 70.9 | 86.1 | 74.3 | 82
4 | COc1ccc(C2=N[C@@H](c3ccc(Cl)cc3)[C@@H](c3ccc(Cl)cc3)N2C(=O)N2CCNC(=O)C2)c(OC(C)C)c1 [Nutlin-3] + Oc1nc(-c2ccc(C(F)(F)F)cc2)nc2c1CSCC2 [XAV939] (first compound 0.5 µM, partner dose 10 µM) | 75.9 | 74.6 | 76.9 | 93.1
5 | Cc1cc(Nc2cc(N3CCN(C)CC3)nc(/C=C/c3ccccc3)n2)n[nH]1 + O=C(Nc1cccc(Cl)c1)Nc1ncc(CCNc2ncnc3ccsc23)s1 [SNS314] (first compound 0.2 µM, partner dose 0.004 µM) | 68.5 | 72.3 | 89.1 | –
6 | Cc1cn(-c2cc(NC(=O)c3ccc(C)c(Nc4nccc(-c5cccnc5)n4)c3)cc(C(F)(F)F)c2)cn1 [nilotinib] + COc1cc2c(Oc3ccc4[nH]c(C)cc4c3F)ncnc2cc1OCCCN1CCCC1 [cediranib] (first compound 1 µM, partner dose 2 µM) | 93 | 118 | – | –
7 | Cn1c(=O)n(-c2ccc(C(C)(C)C#N)cc2)c2c3cc(-c4cnc5ccccc5c4)ccc3ncc21 + CC(C)CCN1c2nc(Nc3cc(F)c(O)c(F)c3)ncc2N(C)C(=O)C1C [BID1870] (first compound 0.02 µM, partner dose 1 µM) | 69.1 | 57.8 | 73.3 | 73.6
8 | Cn1c(=O)n(-c2ccc(C(C)(C)C#N)cc2)c2c3cc(-c4cnc5ccccc5c4)ccc3ncc21 + C=C(c1ccc(C(=O)O)cc1)c1cc2c(cc1C)C(C)(C)CCC2(C)C [Bexarotene] (first compound 0.02 µM, partner dose 10 µM) | 69.5 | 81.7 | 85.1 | –
9 | Cn1c(=O)n(-c2ccc(C(C)(C)C#N)cc2)c2c3cc(-c4cnc5ccccc5c4)ccc3ncc21 + COc1ccc(COc2ccc(Cc3cnc(N)nc3N)cc2OC)cc1 [GW2580] (first compound 0.02 µM, partner dose 5 µM) | 74.8 | 65.9 | 87.6 | 71.3
10 | Cn1c(=O)n(-c2ccc(C(C)(C)C#N)cc2)c2c3cc(-c4cnc5ccccc5c4)ccc3ncc21 + O=C1NC(=O)/C(=C/c2ccc(-c3ccc(F)cc3O)o2)S1 [AS252424] (first compound 0.02 µM, partner dose 5 µM) | 84.7 | 73 | 103 | 68.5
11 | COc1ccc(C2=N[C@@H](c3ccc(Cl)cc3)[C@@H](c3ccc(Cl)cc3)N2C(=O)N2CCNC(=O)C2)c(OC(C)C)c1 [Nutlin-3] + Oc1cc(-c2nc(-c3ccccc3)[nH]c2-c2ccncc2)ccc1Cl [L779450] (first compound 0.5 µM, partner dose 1 µM) | 51.9 | 113 | 91 | 60.7
12 | CC(C)C[C@H](NC(=O)[C@H](Cc1ccccc1)NC(=O)c1cnccn1)B(O)O [Bortezomib] + CO[C@@H]1[C@H](N(C)C(=O)c2ccccc2)C[C@H]2O[C@]1(C)n1c3ccccc3c3c4c(c5c6ccccc6n2c5c31)C(=O)NC4 [Midostaurin] (first compound 0.005 µM, partner dose 0.4 µM) | 6.74 | 8.82 | 72.4 | –
13 | Cn1c(=O)n(-c2ccc(C(C)(C)C#N)cc2)c2c3cc(-c4cnc5ccccc5c4)ccc3ncc21 + Cn1cc(/C=C2\C(=O)Nc3cccnc32)c2ccccc21 [GW441756] (first compound 0.02 µM, partner dose 2 µM) | 77.7 | 92.1 | 108 | 94.6
